Screen size: about 310,000 compounds; about 14,000 (4.5%) showed an effect of 50% or more. Effects have a minus sign here. Some of the results follow.
What follows are molecules tested against human ether-à-go-go-related gene (hERG) potassium channel (human, UniProt Q12809) (assay: primary screen, population patch clamp on CHO cells stably expressing hERG).
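Also: peak tail current of the secondary pulse compared with the same well before compound.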

human ether-à-go-go-related gene (hERG) potassium channel, sequence (Q12809 whole entry, looked up): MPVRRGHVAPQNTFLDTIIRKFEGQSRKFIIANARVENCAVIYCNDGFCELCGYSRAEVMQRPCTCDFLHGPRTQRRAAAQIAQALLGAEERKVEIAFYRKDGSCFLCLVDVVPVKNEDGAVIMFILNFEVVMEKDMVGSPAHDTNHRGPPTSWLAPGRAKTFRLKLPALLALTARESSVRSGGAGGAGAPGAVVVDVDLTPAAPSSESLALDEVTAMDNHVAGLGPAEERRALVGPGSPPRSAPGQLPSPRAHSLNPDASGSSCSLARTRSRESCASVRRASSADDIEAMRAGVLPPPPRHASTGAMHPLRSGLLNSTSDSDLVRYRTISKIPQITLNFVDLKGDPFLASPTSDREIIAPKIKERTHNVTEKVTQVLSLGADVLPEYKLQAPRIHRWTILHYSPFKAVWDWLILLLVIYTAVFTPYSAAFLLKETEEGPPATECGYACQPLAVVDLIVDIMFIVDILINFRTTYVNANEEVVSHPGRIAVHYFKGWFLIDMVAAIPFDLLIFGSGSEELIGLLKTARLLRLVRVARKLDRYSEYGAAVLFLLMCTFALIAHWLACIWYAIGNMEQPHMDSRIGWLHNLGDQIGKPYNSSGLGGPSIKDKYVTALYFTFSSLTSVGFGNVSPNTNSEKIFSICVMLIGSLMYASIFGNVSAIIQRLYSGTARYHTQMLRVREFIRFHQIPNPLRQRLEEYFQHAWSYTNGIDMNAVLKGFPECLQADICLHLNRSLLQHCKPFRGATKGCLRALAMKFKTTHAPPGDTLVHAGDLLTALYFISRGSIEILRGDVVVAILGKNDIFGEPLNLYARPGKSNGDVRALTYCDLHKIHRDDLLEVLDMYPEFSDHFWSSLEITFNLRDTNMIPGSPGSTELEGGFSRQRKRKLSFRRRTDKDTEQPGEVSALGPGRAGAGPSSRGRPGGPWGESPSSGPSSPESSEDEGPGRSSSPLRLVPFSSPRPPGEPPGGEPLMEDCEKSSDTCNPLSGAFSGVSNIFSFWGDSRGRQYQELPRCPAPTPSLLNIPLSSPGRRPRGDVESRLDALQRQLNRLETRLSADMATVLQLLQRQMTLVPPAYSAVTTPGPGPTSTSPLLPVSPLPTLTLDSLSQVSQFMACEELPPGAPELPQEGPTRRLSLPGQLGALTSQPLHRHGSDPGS

| SMILES | hERG current change (%, negative = inhibition) at 10uM [%] |
| --- | --- |
| C/C(=N\Nc1nc(-c2ccccc2O)nc2ccccc12)c1ccccc1 | 10.9 |
| Cc1ccc(O)c(NC(=O)c2cc(C)no2)c1 | 16.2 |
| O=C(N/N=C\c1ccco1)Nc1cccc(Cl)c1 | -5.83 |
| Cc1onc(-c2ccccc2Cl)c1C(=O)NCCn1c(C)cc2ccccc21 | -2.68 |
| CCN(CC(=O)NC1CCS(=O)(=O)C1)S(=O)(=O)c1cccc(C(C)=O)c1 (centres unmarked) | 14.1 |
| COc1ccccc1-c1noc(CSc2nc(C)cc(=O)[nH]2)n1 | 20.1 |
| CNc1nc(Sc2ccccc2)cc(C(F)(F)F)n1 | 15 |
| CCS(=O)(=O)N1CCC(c2nc3ccccc3[nH]2)CC1 | 7.94 |
| COc1ccccc1NS(=O)(=O)c1cc(NC(=O)c2cc[n+]([O-])cc2)ccc1N1CCCC1 | 7.45 |
| CCN(CC)c1ccc(CN(C(=O)c2ccco2)C2CCS(=O)(=O)C2)cc1 (centres unmarked) | -15.4 |
| COCCC(=O)N1CCC(Oc2ccc(C(=O)N3CCCCC3CCO)cc2)CC1 (centres unmarked) | 6.68 |
| CNC(=O)c1cc2c(ccc3ccccc32)o1 | -5.82 |
| CCN(CC)C(=S)NC(=O)Cc1ccccc1 | 16.1 |
| Cc1ccsc1C(=O)OCc1csc(-c2ccccc2)n1 | -14 |
| C[C@H](CS)C(=O)N1CCC[C@H]1C(=O)O | 1.54 |
| Cc1ccc(-c2nc3sc4c(N)ncnc4c3c3c2CCCC3)cc1 | 7.94 |
| CS(=O)(=O)Nc1ccccc1C(=O)NCC1(N2CCCCC2)CCCCC1 | -8.32 |
| CCN(CC)CCCC1(CN)OCCc2ccccc21.Cl (centres unmarked) | 7.48 |
| CCCOc1ccc(C(=O)O)cc1 | -0.0982 |
| CC1(CCc2ccccc2)NC(=S)N(c2ccccc2)N1 (centres unmarked) | 21 |

| SMILES | hERG current change (%, negative = inhibition) at 10uM [%] |
| --- | --- |
| COc1ccc(/C(N)=N/OC(=O)Cc2ccc(OC)c(OC)c2)cc1 | 8.67 |
| CCCOc1ccc(-c2cnc(N)s2)cc1 | -4.49 |
| COc1cccc(Nc2nc(CN3CCOCC3)nc3sc4c(c23)CCCC4)c1 | -53.1 |
| O=C(Nc1cccnc1)c1ccc(F)c(S(=O)(=O)N2CCOCC2)c1 | -0.459 |
| CCOc1ccccc1CNS(=O)(=O)c1ccc2c(c1)C(C)(C)C(=O)N2C | -13.5 |
| CCc1nn(CCCC(=O)N2CCN(c3cccc(C)c3C)CC2)c(=O)c2cc3occc3n12 | -24.9 |
| Cc1ccc(N(CC(=O)NC2CCCCC2)C(=O)CNC(=O)c2ccco2)c(C)c1 | -0.436 |
| COc1ccc2[nH]c3c(=O)n(CCc4ccccc4)cnc3c2c1 | -6.62 |
| CCOC(=O)c1nnc(-c2cccs2)nc1NC(C)C | -32.2 |
| O=C(NCCO)c1c(O)c2cccc3c2n(c1=O)CC3 | 12.7 |
| Cc1cccc2nc(-c3ccccc3)nc(N3CCC(O)(c4ccc(Cl)cc4)CC3)c12 | 10.1 |
| Cc1snc(S(=O)(=O)Cc2ccccc2Cl)c1C#N | -7.06 |
| CC(/C=N/n1c(COc2ccccc2)n[nH]c1=S)=C\c1ccco1 | 14.3 |
| COc1cc(CC(=O)OCc2ccccc2F)cc(OC)c1OC | 4.36 |
| CCSc1nc(-c2ccc(OC)cc2)cc(-c2ccc(OC)cc2)c1C#N | 18.4 |
| COc1ccc2[nH]c(=O)c(C(c3nnnn3C3CCCC3)N3CCN(Cc4ccc5c(c4)OCO5)CC3)cc2c1 (centres unmarked) | -35.3 |
| COc1ccc(-c2nc(CSCC(=O)NC3CC3)c(C)o2)cc1OC | 24.5 |
| O=C(N/N=C/c1cccs1)c1ccc2nc[nH]c2c1 | 6.14 |
| CCOC(=O)[C@H]1[C@H]2COc3ccc(Br)cc3[C@@H]2N2C(=O)CN(Cc3ccccc3)C(=O)[C@@]12C | -4.29 |
| Cn1cc(/C=N/n2cnc3sc4c(c3c2=O)CCCC4)c2ccccc21 | 1.33 |

| SMILES | hERG current change (%, negative = inhibition) at 10uM [%] |
| --- | --- |
| O=C(O)CSc1nnc(-c2ccc(Cl)cc2Cl)n1-c1ccc(Cl)cc1 | 8.03 |
| COc1ccc(NC(=O)COC(=O)c2ccc(OC)c(S(=O)(=O)N3CCCC3)c2)cc1OC | 4.45 |
| Cc1ccc(/C=C2\SC(=S)N(CCC(=O)NNC(=O)c3cccnc3)C2=O)cc1 | 1.06 |
| Cn1c(SCC(=O)c2ccccc2F)nnc1C1CC1 | 7.81 |
| COc1ccc(NC(=S)NC(=O)c2cncc(Br)c2)c(OC)c1 | 16 |
| Cc1cc(N2CCN(C)CC2)nc2ccc(NC(=S)N3CCN(c4ccc(Cl)cc4)CC3)cc12 | 15.5 |
| CC1CCN(CC(O)CN2c3ccccc3Sc3ccccc32)CC1 (centres unmarked) | -59.2 |
| O=C(CCc1ccccc1)Nc1ncn[nH]1 | -10.1 |
| CCOc1ccc(C2Nc3ccccc3C(CC)(CC)O2)cc1 (centres unmarked) | 6.78 |
| Cc1oc2cc([N+](=O)[O-])c(O)c([N+](=O)[O-])c2c1C(=O)c1ccc(Cl)cc1 | 17.9 |
| Cc1cccc(C)c1NC(=S)NC(C)CCc1ccccc1 (centres unmarked) | 6.75 |
| Cc1ccc2c(CC(=O)Nc3cccc(S(=O)(=O)N4CCOCC4)c3)coc2c1 | -51.4 |
| Cc1ccc(C(=O)N[C@H](C(=O)NC2CCCCCCC2)C(C)C)cc1 | 9.46 |
| Cc1ccc(NC(=S)N/N=C/c2cccn2Cc2ccccc2F)cc1 | -1.42 |
| Cc1cccnc1NC1=NCC(C)S1 (centres unmarked) | 3.1 |
| CC(=O)Nc1ccc(C23CC4CC(CC(C4)C2)C3)cc1 | 18.1 |
| O=C(NCc1ccccc1)C1CCCC1 | 22.7 |
| Cc1cnc(NC(=O)c2ccc(-c3nc4ccccc4s3)o2)s1 | -6.9 |
| Cc1cccc(C(=O)NCCCN2CCCC2=O)c1 | 13.9 |

Source: PMC4336329 (PLoS ONE, 2015)
